Measurements: PMC6212790
The list shows a part of the results. At the low end of the ranking the order means little.

Each sequence was assayed against T1, GST-Rok-C97-191 (UniProt O34857) (assay: protein binding microarray). Conditions: Rok is a gene silencer of Bacillus subtilis; high values mean tight binding; most listed sequences are background and not binding sites; double strand, one strand shown.
T1 sequence: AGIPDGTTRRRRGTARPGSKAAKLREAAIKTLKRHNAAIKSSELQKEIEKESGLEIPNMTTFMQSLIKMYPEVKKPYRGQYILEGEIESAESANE
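Also: rank score from −0.5 (least bound) to 0.5 (best bound).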

Sequence	binding signal [E-score]
AGAGCTTA	-0.114
ACAGCGTA	0.101
GATACTAA	0.233
CCAGTGGA	-0.251
ACATCCGG	0.0877
AGCATCTA	0.198
CGGAGTCA	-0.107
AGGGTAGG	-0.0243
CTCATAAC	-0.0354
GCATATTA	0.153
AGAGCCGA	-0.233
GATTAAGC	0.145
ACCCCGGC	-0.285
CCTCCACA	-0.0677
ATGCCGAG	-0.113
ACGGTTTG	-0.0416
ACCGTACG	-0.000355
AACACTAG	0.125
GCAACTCC	0.0133
CGCCAGAC	-0.121
GAGAGCTC	-0.123
ATACGCCA	0.033
CAATGGGC	-0.197
TAATCGGA	0.0743

Sequence	binding signal [E-score]
CACGTCCA	-0.231
GATGACAC	-0.148
ACGGTCGC	-0.135
CGAGAGCG	-0.319
GGTCTTAA	-0.217
CCGAGTTC	0.0391
CGTAAGCA	-0.0659
CGTAACAC	0.0617
ATTCGTAG	0.152
ACGATTAC	-0.0838
CTTAACAC	0.151
AGACCAAA	-0.0391
CTTTTTAC	0.3
CTGCAGTC	-0.0762
CAACTCGG	0.202
AGACGAAG	-0.137
GACATTCC	-0.0274
GGACCAGA	0.0586
CGGGAGCC	-0.132
GGCAGGAC	-0.0735
ACATGGAT	0.159
ACCCCCTC	-0.317
ATACTTGC	0.0477
AGCGGGCA	-0.09

Sequence	binding signal [E-score]
AGTGAGGG	-0.127
GCACCGTA	-0.174
GTCCAACA	-0.0545
CAGTTCAC	0.0789
CCAGGCAC	-0.301
ACCCTTAA	-0.165
TCACCAGA	-0.0888
CAAACGAC	0.0537
AACCCAAG	-0.0339
CGCCACTC	-0.211
AACCGAGT	-0.0232
AAAGAATT	0.0472
GACATGAC	0.173
AGAGGTTG	-0.0137
AGGAGCGG	-0.128
GAGACTTA	-0.17
GGGGCCAC	-0.307
AGCTACTA	0.378
ACAAGCCC	-0.119
CCATAGTA	0.207
CTTTAGAA	0.0135
CTATGTAA	0.289
AGATAAAC	0.216
GTATTGCA	0.174

Sequence	binding signal [E-score]
ACCGCTTG	-0.107
CTCCACAG	-0.18
ATCTCGAG	0.136
AACGCATT	0.0482
CAGCCGGC	-0.219
CACTGCGA	0.123
CCTCGCGC	-0.28
GAGGGGCA	-0.256
CTCACTAA	0.0203
AGAGGGTC	-0.353
CTGAAGTA	0.147
ATCAGTAG	0.285
CTAGTCTA	0.197
CGCCCTAC	0.0104
CCGTGAAC	-0.0699
GCACATCA	0.0204
AGCCGAGG	-0.0773
ATACGACC	0.00262
AATACGAA	0.0453
CCAGTCCA	0.0334
AGATTGCA	0.0596
CCTTGACG	-0.169
